{"source": "patent US20250230234A1", "about": "(Sanofi, published 2025)", "key": {"[1]": {"biological_target": "T1, human GPRC5D (full length, on cells) (human, UniProt Q9NZD1 1-345)", "T1 construct": "also called huGPRC5D; hGPRC5D", "assay": "flow cytometry on Flp-In-293 cells expressing huGPRC5D, apparent KD", "experimental": "(§1) FACS analyses were performed to determine the ability of the ADCC-enhanced antibodies to bind to cells that express GPRC5D on their surface.\n(§2) Analyses were performed with Forecyt® Software. Cells were first gated in FSC (forward scatter)/SSC (side scatter). From the resulting cell population, single live cells were gated. Binding was analyzed as median fluorescence intensity (MFI) of the secondary antibody. Curves and apparent KD (“AppKD”) calculations were generated using GraphPad Prism Software (FIG. 2)."}, "huFcRn [2]": {"biological_target": "T2, huFcRn (human, UniProt P55899 fragment; P61769 fragment)", "T2 construct": "also called human FcRn", "assay": "SPR Biacore T200, huFcRn on biotin CAPture, pH 5.9, mean of two; pH 5.9; fold change vs BM1 IgG1 wt"}, "[3]": {"biological_target": "T1, human GPRC5D (full length, on cells)", "T1 sequence (Q9NZD1 whole entry)": "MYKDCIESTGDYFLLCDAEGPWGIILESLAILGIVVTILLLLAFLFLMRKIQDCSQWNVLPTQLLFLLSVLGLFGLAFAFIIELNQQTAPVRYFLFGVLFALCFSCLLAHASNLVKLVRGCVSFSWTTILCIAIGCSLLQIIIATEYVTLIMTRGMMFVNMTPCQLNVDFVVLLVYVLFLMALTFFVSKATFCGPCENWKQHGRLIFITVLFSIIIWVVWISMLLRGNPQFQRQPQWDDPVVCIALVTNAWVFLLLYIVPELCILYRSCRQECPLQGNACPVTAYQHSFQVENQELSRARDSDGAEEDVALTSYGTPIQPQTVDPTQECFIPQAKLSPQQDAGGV", "assay": "cell-based or functional assay"}, "[4]": {"biological_target": "T3, human GPRC5D truncated, N-terminal deletion of the first 15 residues (aa16-aa330), on HEK FITR cells (human, UniProt Q9NZD1 16-330)", "T3 construct": "also called hGPRC5D (aa16-aa330)", "assay": "flow cytometry on HEK FITR cells expressing hGPRC5D (aa16-aa330), apparent KD", "experimental": "as §1, §2"}, "[5]": {"biological_target": "T4, cynomolgus GPRC5D expressed on Flp-In-293 cells (cynomolgus)", "T4 construct": "whole, on cells; also called cyGPRC5D", "assay": "flow cytometry on Flp-In-293 cells expressing cyGPRC5D, apparent KD", "experimental": "as §1, §2"}, "[6]": {"biological_target": "T1, human GPRC5D (full length, on cells)", "assay": "cell-based or functional assay", "remark": "listed apart in the source"}, "huFcγRIIIb": {"biological_target": "T5, huFcγRIIIb (human, UniProt O75015 17-200)", "T5 construct": "also called human FcγRIIIb", "assay": "SPR Biacore T200, receptor captured by anti-His, single cycle kinetics, mean of two", "experimental": "(§3) The interaction of the antibodies with human Fc receptors was analysed by SPR using a Biacore™ T200 instrument in the following test conditions: [0242] Immobilization of anti-His antibodies on a CM5 sensor chip via amine coupling for seven Fcγ receptors: huFcγRI, huFcγRIIa_H131, huFcγRIIa_R131, huFcγRIIb/c, huFcγRIIIa_V158, huFcγRIIIa_F158, huFcγRIIIb, or use of biotin CAPture for the huFcRn analysis [0243] Capture of each of the Fc receptors [0244] Affinity constant determination by single cycle kinetics (SCK) at concentrations ranging from 0.6 nM to 2000 nM [0245] Interaction with huFcRn was studied at pH5.9 and pH7.4"}, "huFcγRIIa_H167": {"biological_target": "T6, huFcγRIIa_H167 (human, UniProt P12318 36-218, limits assumed)", "T6 construct": "also called huFcγRIIA H167 polymorph", "T6 sequence (looked up)": "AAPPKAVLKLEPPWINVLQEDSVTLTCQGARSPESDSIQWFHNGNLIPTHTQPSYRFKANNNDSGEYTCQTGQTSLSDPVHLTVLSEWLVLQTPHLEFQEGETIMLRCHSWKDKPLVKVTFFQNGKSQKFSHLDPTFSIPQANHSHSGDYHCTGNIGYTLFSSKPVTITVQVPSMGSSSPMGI", "assay": "SPR Biacore T200, receptor captured by anti-His, single cycle kinetics, mean of two", "experimental": "as §3"}, "huFcγRIIIa_F158": {"biological_target": "T7, huFcγRIIIa_F158 (human, UniProt P08637 fragment)", "T7 construct": "Recombinant receptor captured on the SPR chip through anti-His antibodies; also called human FcγRIIIa F158 polymorph; CD16a", "assay": "SPR Biacore T200, receptor captured by anti-His, single cycle kinetics, mean of two", "experimental": "as §3"}, "huFcγRIIIa_V158": {"biological_target": "T8, huFcγRIIIa_V158 (human, UniProt P08637 fragment)", "T8 construct": "Recombinant receptor captured on the SPR chip through anti-His antibodies; V at position 158 (mature numbering, as the name says); also called human FcγRIIIa V158 polymorph; CD16a", "assay": "SPR Biacore T200, receptor captured by anti-His, single cycle kinetics, mean of two", "experimental": "as §3"}, "huFcγRIIa_R167 [7]": {"biological_target": "T9, huFcγRIIa_R167 (human, UniProt P12318 36-218, limits assumed)", "T9 construct": "also called huFcγRIIA R167 polymorph", "T9 sequence (looked up)": "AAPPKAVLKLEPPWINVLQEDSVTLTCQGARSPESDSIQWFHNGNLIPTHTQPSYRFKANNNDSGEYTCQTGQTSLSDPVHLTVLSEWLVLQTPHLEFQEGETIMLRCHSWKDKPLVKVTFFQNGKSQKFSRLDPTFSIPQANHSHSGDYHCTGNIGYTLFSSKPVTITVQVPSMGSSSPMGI", "assay": "SPR Biacore T200, receptor captured by anti-His, single cycle kinetics, mean of two", "experimental": "as §3"}, "huFcγRI": {"biological_target": "T10, huFcγRI (human, UniProt P12314 16-288)", "T10 construct": "also called human FcγRI", "assay": "SPR Biacore T200, receptor captured by anti-His, single cycle kinetics, mean of two", "experimental": "as §3"}, "[8]": {"biological_target": "T1, human GPRC5D (full length, on cells)", "assay": "flow cytometry on MM.1R cells, apparent KD, N = 2", "experimental": "as §1, §2"}, "[9]": {"biological_target": "T1, human GPRC5D (full length, on cells)", "assay": "flow cytometry on HEK FITR cells expressing full-length hGPRC5D, apparent KD", "experimental": "as §1, §2"}, "huFcRn [10]": {"biological_target": "T2, huFcRn", "assay": "SPR Biacore T200, huFcRn on biotin CAPture, pH 5.9, mean of two; pH 5.9", "experimental": "as §3"}, "[11]": {"biological_target": "T1, human GPRC5D (full length, on cells)", "assay": "flow cytometry on MM.1R cells, apparent KD, N = 1", "experimental": "as §1, §2"}, "[12]": {"biological_target": "T1, human GPRC5D (full length, on cells)", "assay": "flow cytometry on MM.1R cells, apparent KD, N = 3", "experimental": "as §1, §2"}, "huFcγRIIa_R167 [13]": {"biological_target": "T9, huFcγRIIa_R167", "assay": "SPR Biacore T200, receptor captured by anti-His, single cycle kinetics"}, "[14]": {"biological_target": "T1, human GPRC5D (full length, on cells)", "assay": "flow cytometry on MM.1R cells, apparent KD, mean", "experimental": "as §1, §2"}, "[15]": {"biological_target": "T11, human GPRC5D truncated, N-terminal deletion of the first 20 residues (aa21-aa330), on HEK FITR cells (human, UniProt Q9NZD1 21-330)", "T11 construct": "also called hGPRC5D (aa21-aa330)", "assay": "flow cytometry on HEK FITR cells expressing hGPRC5D (aa21-aa330), apparent KD", "experimental": "as §1, §2"}, "[16]": {"biological_target": "T1, human GPRC5D (full length, on cells)", "assay": "cell-based or functional assay", "remark": "listed apart in the source"}}, "note": "Several values for one entry are separate records, joined by “and”; a condition that tells them apart may be missing. Identical values can stand only once.", "data": [{"binder": "clone 11 in afucosylated format (anti-GPRC5D IgG1, afucosylated Fc) (antibody, afucosylated Fc (GlymaxX technology), also called 11-afuco; 11 afuco) heavy: EVQLVESGGGLVQPGGSLRLSCAASGFTVSSNYMSWVRQAPGKGLEWVSVIYSGGSTYYADSVKGRFTISRDNSKNTLYLQMNSLRAEDTAVYYCARGFLAFGRYYYGMDVWGQGTTVTVSS[human IgG1 constant region not listed] light: QSVLTQPPSASGTPGQRVTISCSGSSSNIGSNYVYWYQQLPGTAPKLLIYRNNQRPSGVPDRFSGSKSGTSASLAISGLRSEDEADYYCAAWDDSLSGDVFGGGTKLTVLGQPKAAPSVTLFPPSSEELQANKATLVCLISDFYPGAVTVAWKADSSPVKAGVETTTPSKQSNNKYAASSYLSLTPEQWKSHRSYSCQVTHEGSTVEKTVAPTECS", "values": [{"measurement": "Kd", "setting": "[1]", "result": 2.2, "unit": "nM"}, {"measurement": "Fold change vs BM1 IgG1 wt", "setting": "huFcRn [2]", "result": 1, "unit": "fold"}, {"measurement": "relEC50 Median, ADCC (calcein release) against EJM cells with NK cells", "setting": "[3]", "result": "20.5 ng/ml and 141 pM"}, {"measurement": "Kd", "setting": "[4]", "result": 0.8, "unit": "nM"}, {"measurement": "Kd", "setting": "[5]", "result": 1.3, "unit": "nM"}, {"measurement": "relEC50 Median, ADCC (calcein release) against MM.1R cells with NK cells", "setting": "[6]", "result": "5.4 ng/ml and 36 pM"}, {"measurement": "Fold change vs BM1 IgG1 wt", "setting": "huFcγRIIIb", "result": 10, "unit": "fold"}, {"measurement": "Kd", "setting": "huFcγRIIIb", "result": 183, "unit": "nM"}, {"measurement": "Fold change vs BM1 IgG1 wt", "setting": "huFcγRIIa_H167", "result": 1, "unit": "fold"}, {"measurement": "Kd", "setting": "huFcγRIIa_H167", "result": 2130, "unit": "nM"}, {"measurement": "NormB", "setting": "huFcγRIIa_H167", "result": 13}, {"measurement": "Fold change vs BM1 IgG1 wt", "setting": "huFcγRIIIa_F158", "result": 8, "unit": "fold"}, {"measurement": "Kd", "setting": "huFcγRIIIa_F158", "result": 29, "unit": "nM"}, {"measurement": "NormB", "setting": "huFcγRIIIa_F158", "result": 37}, {"measurement": "Fold change vs BM1 IgG1 wt", "setting": "huFcγRIIIa_V158", "result": 10, "unit": "fold"}, {"measurement": "Kd", "setting": "huFcγRIIIa_V158", "result": 4.93, "unit": "nM"}, {"measurement": "NormB", "setting": "huFcγRIIIa_V158", "result": 34}, {"measurement": "NormB", "setting": "huFcγRIIa_R167 [7]", "result": 2}, {"measurement": "Fold change vs BM1 IgG1 wt", "setting": "huFcγRI", "result": 1, "unit": "fold"}, {"measurement": "Kd", "setting": "huFcγRI", "result": 1.17, "unit": "nM"}, {"measurement": "Kd", "setting": "[8]", "result": 0.017, "unit": "nM"}, {"measurement": "Kd", "setting": "[9]", "result": 1.3, "unit": "nM"}, {"measurement": "Kd", "setting": "huFcRn [10]", "result": 408, "unit": "nM"}, {"measurement": "Kd", "setting": "[11]", "result": 0.035, "unit": "nM"}, {"measurement": "Kd", "setting": "[12]", "result": 0.024, "unit": "nM"}, {"measurement": "binding result", "setting": "huFcγRIIa_R167 [13]", "result": "no binding (tested: 0.6 nM to 2000 nM)"}, {"measurement": "Kd", "setting": "[14]", "result": 0.025, "unit": "nM"}, {"measurement": "Kd", "setting": "[15]", "result": 1, "unit": "nM"}, {"measurement": "relEC50 median, ADCC over four days (Incucyte) against MM.1R cells with NK cells", "setting": "[16]", "result": "0.5 ng/ml and 3.45 pM"}]}]}
